Test results: patent publication US20060117402A1 (KOREA KUMHO PETROCHEMICAL, published 2006)

Biological target: T1, full-length ABF2, in vitro translated and 35S-Met-labelled (Arabidopsis, UniProt Q9M7Q4 1-416, 35S-Met-labelled)
T1 construct: range 1-416; Cloned into pCITE (Novagen) and translated with the TNT kit; also called ABF2/AREB1
T1 sequence (looked up): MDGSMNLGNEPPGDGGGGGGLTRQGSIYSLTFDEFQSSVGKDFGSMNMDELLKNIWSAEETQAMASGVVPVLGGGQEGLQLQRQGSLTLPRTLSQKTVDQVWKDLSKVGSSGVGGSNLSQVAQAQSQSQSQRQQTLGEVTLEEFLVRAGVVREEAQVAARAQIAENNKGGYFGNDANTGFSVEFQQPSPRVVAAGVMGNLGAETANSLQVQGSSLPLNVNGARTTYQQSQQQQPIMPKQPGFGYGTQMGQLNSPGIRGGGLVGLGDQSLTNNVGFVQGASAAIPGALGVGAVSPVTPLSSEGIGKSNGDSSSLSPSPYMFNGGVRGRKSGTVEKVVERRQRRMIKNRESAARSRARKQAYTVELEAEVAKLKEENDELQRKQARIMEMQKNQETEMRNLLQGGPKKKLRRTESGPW
Assay: GST pulldown of 35S-labelled ABF2, autoradiography
Description: For binding assay, GST-ARIA fusion proteins (0.5 μg) were incubated with the Glutathione-Sepharose 4B resins for 1 hr at 4° C. in a binding buffer (50 mM Tris, pH 8.0, 100 mM NaCl, 10% glycerol, 0.5% Triton X-100, 1 mM PMSF). In vitro-translated, ³⁵S-labeled ABF2 was then added and incubation was continued for 2 hr with constant rotation. The resins were washed five times with the binding buffer and resuspended in SDS-polyacrylamide gel electrophoresis sample buffer. The proteins were separated on 15% SDS-polyacrylamide gel and visualized by autoradiography.

- binding result: no binding
B1: GST alone (other)
chain: not shown
notes: Negative control in the GST pulldown; also called glutathione-S-transferase
